This is one part of the list.
Molecular target: no compound (DMSO)
Test: log2 fold change of degron read counts, EGFP-low vs EGFP+ sorted cells; higher = lower degron-EGFP level without compound (poor expression or instability)
Details: compound: DMSO control; 18 h
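Also: jurkat cells carrying a lentiviral library of mutant zinc finger degrons fused to EGFP plus mCherry, mCherry+ cells FACS sorted, degron abundance counted by next-generation sequencing.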

Row | Sequence | log2 fold change of degron read counts
1 | FACNQCGRMFTQKGNLLRHIKL | 0.167
2 | LVCPICGFFCTQKGNLLRHIKL | 1.92
3 | FQCNVCGADFTQKGNLLRHIKL | -0.756
4 | FECNVCGANFTQKGNLLRHIKL | -1.79
5 | FNCNICGAIFTQKGNLLRHIKL | 0.148
6 | FECEICGATFTQKGNLLRHIKL | -2.43
7 | FYCNVCGARFTQKGNLLRHIKL | -0.713
8 | FCCPVCGAAFTQKGNLLRHIKL | -0.0221
9 | FTCDICGAGFTQKGNLLRHIKL | -1.34
10 | FHCEICGHKFTQKGNLLRHIKL | -2.03
11 | LRCNQCGFPCTQKGNLLRHIKL | 1.22
12 | FDCPQCGAHFTQKGNLLRHIKL | -0.855
13 | FQCNICGAFFTQKGNLLRHIKL | -0.4
14 | FKCNQCGAVFTQKGNLLRHIKL | -0.759
15 | FWCEQCGATFTQKGNLLRHIKL | -1.51
16 | FKCEICGACFTQKGNLLRHIKL | -1.22
17 | FYCDQCGALFTQKGNLLRHIKL | -1.2
18 | FGCNQCGRYFTQKGNLLRHIKL | 0.795
19 | LHCNQCGFYCTQKGNLLRHIKL | 1.53
20 | FTCDVCGAEFTQKGNLLRHIKL | -1.89
21 | FGCEICGHPFTQKGNLLRHIKL | -0.237
22 | FVCPICGARFTQKGNLLRHIKL | -0.502
23 | LFCEICGFLCTQKGNLLRHIKL | 1.93
24 | FDCEICGRGFTQKGNLLRHIKL | -0.758
25 | LSCPICGFDCTQKGNLLRHIKL | 0.128

Row | Sequence | log2 fold change of degron read counts
26 | FNCNICGAKFTQKGNLLRHIKL | -0.604
27 | FACNQCGAPFTQKGNLLRHIKL | -0.239
28 | FYCNQCGAKFTQKGNLLRHIKL | -0.179
29 | FYCEQCGACFTQKGNLLRHIKL | -0.792
30 | FNCEICGRGFTQKGNLLRHIKL | -2.17
31 | FKCPICGRPFTQKGNLLRHIKL | -0.319
32 | FICEICGATFTQKGNLLRHIKL | -1.41
33 | FGCPICGAMFTQKGNLLRHIKL | -0.185
34 | LNCNQCGFDCTQKGNLLRHIKL | -0.418
35 | FVCNVCGAMFTQKGNLLRHIKL | -0.477
36 | FECEQCGASFTQKGNLLRHIKL | -3.21
37 | LGCEICGFLCTQKGNLLRHIKL | 1.91
38 | FDCNVCGATFTQKGNLLRHIKL | -1.74
39 | FACPICGHEFTQKGNLLRHIKL | -0.569
40 | FICDQCGAGFTQKGNLLRHIKL | -2.82
41 | FACSVCGHIFTQKGNLLRHIKL | 0.889
42 | FVCDQCGAFFTQKGNLLRHIKL | -1.07
43 | FQCDQCGAYFTQKGNLLRHIKL | -1.3
44 | FRCEICGHDFTQKGNLLRHIKL | -0.9
45 | FECPICGHKFTQKGNLLRHIKL | -0.866
46 | FVCEQCGAYFTQKGNLLRHIKL | -1.13
47 | FVCNVCGANFTQKGNLLRHIKL | -1.03
48 | FMCNVCGAKFTQKGNLLRHIKL | -0.424
49 | FHCPVCGASFTQKGNLLRHIKL | -0.782
50 | FFCEVCGANFTQKGNLLRHIKL | -0.844

From the supplement of paper PMC12645437, “Orthogonal IMiD-Degron Pairs Induce Selective Protein Degradation in Cells” (ACS Chemical Biology, 2025)
